# The list shows a part of the results.
# Experiments:
# HSkMC = human skeletal muscle cells; assay: cytotoxicity call (relative viability < 0.9); settings: 10 µM
# HepG2 = assay: cytotoxicity call (relative viability < 0.9); settings: 10 µM
# S. aureus RN4220 = assay: growth inhibition call (relative growth <= 0.2); settings: 50 µM
SMILES,cytotoxicity call (HSkMC),cytotoxicity call (HepG2),growth inhibition call (S. aureus RN4220)
C[C@@H]1CCCCO[C@@H](CN(C)Cc2ccc(C(F)(F)F)cc2)[C@@H](C)CN([C@H](C)CO)C(=O)c2cc(N(C)C)ccc2O1,inactive,inactive,inactive
C[C@@H]1CN([C@H](C)CO)C(=O)c2cccc(NS(=O)(=O)c3ccc(F)cc3)c2O[C@H]1CN(C)S(=O)(=O)c1cccs1,inactive,inactive,inactive
C[C@H]1CCCCO[C@H](CN(C)C(=O)Cc2ccccc2)[C@@H](C)CN([C@@H](C)CO)C(=O)c2cc(NC(=O)C3CCCCC3)ccc2O1,inactive,inactive,inactive
COc1ccc(NC(=O)Nc2ccc3c(c2)C(=O)N([C@H](C)CO)C[C@H](C)[C@@H](CN(C)C(=O)NC2CCCCC2)OCCCC[C@@H](C)O3)cc1,inactive,inactive,inactive
C[C@@H]1CN([C@@H](C)CO)S(=O)(=O)c2ccc(Br)cc2O[C@H]1CN(C)C(=O)c1ccc2c(c1)OCO2,inactive,inactive,inactive
CCS(=O)(=O)N1C[C@]2(CCN(CC2)S(=O)(=O)c2cn(cn2)C)c2c(n(c3cc(ccc23)OC)C)[C@@H]1CO,inactive,inactive,inactive
C[C@H](CO)N1C[C@H](C)[C@H](CN(C)Cc2ccc(Oc3ccccc3)cc2)Oc2ccc(NC(=O)NC3CCCCC3)cc2C1=O,inactive,inactive,inactive
COc1ccc(NC(=O)Nc2ccc3c(c2)C(=O)N([C@@H](C)CO)C[C@@H](C)[C@@H](CN(C)Cc2ccccc2)OCCCC[C@@H](C)O3)cc1,inactive,active,inactive
O=C(O)C[C@@H]1CC[C@@H]2[C@H](COC[C@H](O)CN2S(=O)(=O)c2ccc(F)cc2)O1,inactive,inactive,inactive
Cc1ccc(S(=O)(=O)Nc2ccc3c(c2)C(=O)N([C@@H](C)CO)C[C@@H](C)[C@@H](CN(C)S(=O)(=O)c2cccs2)O3)cc1,inactive,inactive,inactive
C[C@@H]1CN([C@@H](C)CO)C(=O)c2cccc(NC(=O)c3ccc(-c4nccs4)cc3)c2O[C@@H]1CN(C)Cc1ccc(C(F)(F)F)cc1,inactive,active,inactive
C[C@@H]1CCCCO[C@H](CN(C)C(=O)Nc2ccc(C(F)(F)F)cc2)[C@H](C)CN([C@H](C)CO)C(=O)c2cc(NC(=O)Nc3ccc(C(F)(F)F)cc3)ccc2O1,inactive,inactive,inactive
NC[C@H]1COC2(CCCCC2)O1,inactive,inactive,inactive
C[C@@H]1CN([C@H](C)CO)C(=O)c2c(c3ccccc3n2C)-c2ccccc2CO[C@@H]1CN(C)Cc1cccc(C(F)(F)F)c1,inactive,inactive,inactive
Cc1ccc(S(=O)(=O)N(C)C[C@H]2OCCCC[C@H](C)Oc3ccc(NC(=O)Nc4cccc5ccccc45)cc3C(=O)N([C@H](C)CO)C[C@H]2C)cc1,inactive,inactive,inactive
Cc1ccc(S(=O)(=O)Nc2ccc3c(c2)C(=O)N([C@H](C)CO)C[C@H](C)[C@H](CN(C)Cc2ccccc2)OCCCC[C@@H](C)O3)cc1,inactive,inactive,inactive
C[C@H]1CN([C@@H](C)CO)C(=O)c2cc(C#CC3(O)CCCC3)cnc2O[C@@H]1CN(C)C(=O)Cc1ccncc1,inactive,inactive,inactive
C[C@H]1CN([C@@H](C)CO)C(=O)c2cc(C#CCN(C)C)cnc2O[C@H]1CN(C)C(=O)c1ccc2c(c1)OCO2,inactive,inactive,inactive
C[C@@H]1CCCCO[C@@H](CN(C)C(=O)c2ccccc2)[C@H](C)CN([C@@H](C)CO)C(=O)c2cc(NC(=O)CCC(F)(F)F)ccc2O1,inactive,inactive,inactive
COc1ccc(S(=O)(=O)Nc2cccc3c2O[C@H](CN(C)S(=O)(=O)c2cccs2)[C@@H](C)CN([C@@H](C)CO)C3=O)cc1,inactive,inactive,inactive
C[C@@H]1CN([C@H](C)CO)C(=O)c2cc(NC(=O)Nc3cccc4ccccc34)ccc2O[C@@H]1CN(C)C(=O)NC1CCCCC1,inactive,inactive,inactive
C[C@H](CO)N1C[C@H](C)[C@@H](CN(C)Cc2ccc(-c3ccccc3)cc2)Oc2ccc(NC(=O)Cc3ccccc3)cc2CC1=O,inactive,inactive,inactive
C[C@@H]1CCCCO[C@H](CN(C)Cc2ccc3c(c2)OCO3)[C@H](C)CN([C@H](C)CO)C(=O)c2cc(NC(=O)Nc3ccc(C(F)(F)F)cc3)ccc2O1,active,active,inactive
COc1ccc(S(=O)(=O)Nc2ccc3c(c2)C(=O)N([C@H](C)CO)C[C@@H](C)[C@H](CN(C)Cc2ccc(Cl)c(Cl)c2)OCCCC[C@H](C)O3)cc1,active,active,inactive
CCCCC/C=C\C/C=C\CCCCCCCC(=O)O[C@H](COC(=O)CCCCCCCCCCCCCCC)COP(=O)(O)OCC[N+](C)(C)C,inactive,inactive,inactive

SMILES,cytotoxicity call (HSkMC),cytotoxicity call (HepG2),growth inhibition call (S. aureus RN4220)
CO/N=C(\C(=O)N[C@@H]1C(=O)N2C(C(=O)O[C@@H](C)OC(C)=O)=C(COC(N)=O)CS[C@H]12)c1ccco1,inactive,inactive,inactive
Cc1noc(C)c1NC(=O)Nc1ccc2c(c1)C(=O)N([C@H](C)CO)C[C@H](C)[C@H](CN(C)C(=O)c1ccccc1)OCCCC[C@H](C)O2,inactive,inactive,inactive
O=C(C[C@@H]1CC[C@@H]2[C@H](COC[C@@H](O)CN2S(=O)(=O)c2ccc(F)cc2)O1)N[C@@H]1CCN(Cc2ccccc2)C1,inactive,inactive,inactive
[N-]=[N+]=N[C@]1(CO)O[C@@H](n2ccc(N)nc2=O)[C@@H](O)[C@@H]1O,inactive,inactive,inactive
O=C(O)CCCC[C@@H]1SC[C@@H]2NC(=O)N[C@@H]21,inactive,inactive,inactive
COc1ccc2ccccc2c1-c1c(OC)ccc2ccccc12,inactive,inactive,inactive
C[C@@H]1CN([C@@H](C)CO)C(=O)c2cc(NC(=O)CCC(F)(F)F)ccc2O[C@H]1CN(C)S(=O)(=O)c1cn(C)cn1,inactive,inactive,inactive
COc1ccc2c3c(n(c2c1)C)[C@@H](CO)N(C[C@]13CCN(CC1)Cc1cccc(c1)F)C(=O)Nc1ccc(cc1)F,inactive,inactive,inactive
C[C@H](CO)N1C[C@H](C)[C@@H](CN(C)C(=O)Nc2ccc(C(F)(F)F)cc2)Oc2ccc(NS(C)(=O)=O)cc2C1=O,inactive,inactive,inactive
CC[C@@H](C)[C@H]1O[C@@]2(CC[C@@H]1C)C[C@H]1C[C@@H](CC=C(C)[C@@H](O[C@H]3C[C@@H](OC)[C@@H](O[C@H]4C[C@@H](OC)[C@@H](O)[C@@H](C)O4)[C@@H](C)O3)[C@@H](C)C=CC=C3CO[C@H]4[C@@H](O)C(C)=C[C@@H](C(=O)O1)[C@]34O)O2.CO[C@H]1C[C@@H](O[C@@H]2[C@@H](OC)C[C@@H](O[C@@H]3C(C)=CC[C@@H]4C[C@@H](C[C@@]5(CC[C@@H](C)[C@H](C(C)C)O5)O4)OC(=O)[C@@H]4C=C(C)[C@H](O)[C@@H]5OCC(=CC=C[C@@H]3C)[C@@]45O)O[C@@H]2C)O[C@@H](C)[C@@H]1O,active,active,inactive
C[C@@H]1CCCCO[C@H](CN(C)C(=O)c2ccccc2)[C@@H](C)CN([C@@H](C)CO)C(=O)c2cc(NC(=O)Nc3ccc4c(c3)OCO4)ccc2O1,inactive,inactive,inactive
O=C(NO)c1ccc(C(=O)N/N=C/[C@H](O)[C@H](O)[C@@H](O)[C@@H](O)CO)cc1,inactive,inactive,inactive
C[C@@H]1CCCCO[C@H](CN(C)C(=O)c2ccncc2)[C@H](C)CN([C@@H](C)CO)C(=O)c2cc(NS(=O)(=O)c3ccc(Cl)cc3)ccc2O1,inactive,inactive,inactive
C[C@@H]1CCCCO[C@H](CN(C)C(=O)CCCN(C)C)[C@H](C)CN([C@@H](C)CO)C(=O)c2cc(NS(C)(=O)=O)ccc2O1,inactive,inactive,inactive
COc1ccc(S(=O)(=O)N(C)C[C@@H]2Oc3c(NS(=O)(=O)c4cn(C)cn4)cccc3C(=O)N([C@@H](C)CO)C[C@H]2C)cc1,inactive,inactive,inactive
CC(C)(CO)NC(=O)C(=O)NC1CC1,inactive,inactive,inactive
COc1ccc(NC(=O)N(C)C[C@H]2Oc3ccc(NC(=O)Nc4ccc(C(F)(F)F)cc4)cc3C(=O)N([C@@H](C)CO)C[C@@H]2C)cc1,inactive,inactive,inactive
CN(C)CCCCCCNC(=O)[C@@H]1C[C@@H]2C(=O)N[C@@H](CCCC[N+](C)(C)C)C(=O)N2[C@@H]1c1cccc(OCCO)c1,inactive,inactive,inactive
Cc1cc(C(=O)Nc2cccc3c2O[C@H](CN(C)Cc2ccncc2)[C@H](C)CN([C@@H](C)CO)C3=O)n(C)n1,inactive,inactive,inactive
C[C@@H]1CN([C@@H](C)CO)C(=O)c2cccc(NC(=O)Nc3cccc4ccccc34)c2O[C@H]1CN(C)C(=O)Nc1ccc(C(F)(F)F)cc1,active,active,inactive
Cc1ccc(S(=O)(=O)N(C)C[C@H]2Oc3c(NS(C)(=O)=O)cccc3C(=O)N([C@@H](C)CO)C[C@H]2C)cc1,inactive,inactive,inactive
CC12CCC(CC1=O)C2(C)C (stereo not given),inactive,inactive,inactive
C[C@@H]1CN([C@@H](C)CO)C(=O)c2cccc(NC(=O)CCCCCC(=O)Nc3ccccc3N)c2O[C@H]1CN(C)C(=O)Nc1ccc(F)cc1,inactive,inactive,inactive
CCC[C@@H](O)C#Cc1cnc2c(c1)C(=O)N([C@H](C)CO)C[C@H](C)[C@H](CN(C)S(=O)(=O)c1ccc(F)cc1)O2,inactive,inactive,inactive
Cc1noc(C)c1S(=O)(=O)Nc1ccc2c(c1)C(=O)N([C@H](C)CO)C[C@@H](C)[C@H](CN(C)S(=O)(=O)c1ccc(F)cc1)O2,inactive,inactive,inactive

# Reference: the antibiotic and cytotoxicity screens of Wong et al. (2023)
